Results published in PubChem BioAssay AID588855 (National Center for Advancing Translational Sciences (NCATS), 2011).
Hit rate of the full screen: of about 410,000 compounds, about 5,000 (1.2%) were called active. Inconclusive results, whose numbers are uncertain, are shown with a selection of clear calls. Calls come from the whole dose curve; as a rule, active = well fitted inhibition curve with a large enough effect; inconclusive = small, poorly fitted or top-dose-only effect; inactive = no such curve, though single readings can be large or run the other way. Potencies of inconclusive entries are doubtful fits and often do not repeat.
% is set by controls: 0 for no effect and ±100 for the full control effect; potency is the fitted concentration of half-maximal effect; tags give direction and shape of the fitted curve.

Assay: qHTS for Inhibitors of TGF-b; note: nearly all actives have a fitted effect of over 65% in size
Conditions: HepG2 CAGA-GFP TGF-b/SMAD3 reporter, GFP fluorescence, 18 h, TGF-beta stimulated, 500 pg/mL final; series mostly up to 46.1 µM; activity, negative = inhibition: at the top concentration
Summary of the method: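 Inhibition of TGF-beta-driven CAGA-GFP reporter expression in HEPG2 cells is measured by cellular GFP fluorescence after 18 h stimulation with 500 pg/mL recombinant TGF-beta in 1% FBS medium at 37 degrees C.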
For CCCCCn1c(N2CCC(Cc3ccccc3)CC2)nc2c1c(=O)[nH]c(=O)n2C, the Potency was inconclusive: 12.6 µM [inhibitor, partial curve, poor fit].
With O=C(CCCn1c(=O)c2cccn2c2cccnc21)NCCc1ccc(Cl)cc1 the Potency was inconclusive: 2.51 µM [inhibitor, partial curve, poor fit].
In the case of COc1ccc(CN2C(=O)C(NC(=O)c3ccc(C)cc3)(C(F)(F)F)N=C2c2ccccc2)cc1 (stereo unspecified), the Potency is reported as inconclusive: 1 µM [inhibitor, partial curve, poor fit].
With Cc1nnc(N/N=C/c2c(Cl)cccc2Cl)n1N the Potency was inconclusive: 0.501 µM [inhibitor, full curve, poor fit].
In the case of Cc1cccc(C)c1N(CC(=O)N1CCOCC1)S(C)(=O)=O, the “activity, negative = inhibition” value is reported as inactive: -21.2%.
For Cc1[nH]c(-c2ccc(F)cc2)cc1C(=O)N1CCN(c2ccccc2)CC1, the Potency was inconclusive: 14.1 µM [inhibitor, partial curve, poor fit].
For Cc1ccc(C)c(S(=O)(=O)N2CCCCC2CCNC(=O)C(=O)NCc2ccco2)c1 (stereo unspecified), the Potency was inconclusive: 35.5 µM [inhibitor, single point].
For COc1ccc(-c2cc(N3CCCC3)n3ncnc3n2)cc1, the “activity, negative = inhibition” value was inactive: 1.9%.
With CC(C)CC(=O)NC(=S)Nc1nc(-c2cccc3ccccc23)cs1 the Potency was inconclusive: 25.1 µM [inhibitor, single point].
In the case of CCOC(=O)c1cc(-c2ccccc2)n(CCC(=O)N2CCN(c3ccc(OC)cc3)CC2)c1C, the “activity, negative = inhibition” value is reported as inactive: -25.6%.
With Cc1ccc2nc(NC(=O)c3cc(=O)c4cc(C)c(C)cc4o3)sc2c1 the “activity, negative = inhibition” value was inactive: -4.87%.
For CCOc1ccccc1C1C(C(=O)Nc2ccccc2OC)=C(C)Nc2nc3ccccc3n21 (stereo unspecified), the “activity, negative = inhibition” value was inactive: 2.34%.
In the case of CCCCN1CCc2c1nc1ccc(Br)cc1c2N, the Potency is reported as inconclusive: 35.5 µM [inhibitor, partial curve, poor fit].
For CC1=CC(C)(C)N(C(=O)c2ccccc2)c2ccccc21, the Potency was inconclusive: 15.8 µM [inhibitor, single point].
For Cc1ccc(C)c(NC(=O)CSc2cn(CC(=O)N3CCCC3)c3ccccc23)c1, the Potency was inconclusive: 35.5 µM [inhibitor, partial curve, poor fit].
With COc1cc(/C=N\Nc2nncn2N)ccc1OC(C)=O the Potency was inconclusive: 35.5 µM [inhibitor, single point].
With CN(C)CCCNS(=O)(=O)c1ccc(Oc2ncc(C(F)(F)F)cc2Cl)cc1 the Potency was inconclusive: 35.5 µM [inhibitor, single point].
In the case of O=C1CCCC2=C1CC(C(=O)OCc1ccccc1)C(=O)N2Cc1ccccc1 (stereo unspecified), the Potency is reported as inconclusive: 35.5 µM [inhibitor, single point].
For CC(C)(O)C#Cc1ccc(CN2CCN(Cc3ccsc3)C(CCO)C2)cc1 (stereo unspecified), the “activity, negative = inhibition” value was inactive: -2.26%.
With CCc1ccccc1NC(=O)CCN1C(=O)C2C3CCC(C3)C2C1=O (stereo unspecified) the “activity, negative = inhibition” value was inactive: 1.5%.
For CC(=NO)c1ccc2c(c1)C(=NO)c1ccccc1-2, the “activity, negative = inhibition” value was inactive: 0%.
For CN(Cc1cc(Cl)cc(Cl)c1O)Cc1c(O)ccc2ccccc12, the Potency was inconclusive: 35.5 µM [inhibitor, single point].
With CC(=O)Nc1ccc(C=NN=C2c3ccccc3-c3ccccc32)cc1 the Potency was inconclusive: 0.112 µM [inhibitor, full curve, poor fit].
For C=CCNC(=S)NNC(=O)COc1ccc2cc(Br)ccc2c1, the “activity, negative = inhibition” value was inactive: -11.2%.
With O=C(Nc1cccc(C(F)(F)F)c1)Oc1ccc(Cl)c2cccnc12 the Potency was active: 7.08 µM.
With C1=CC2(C=C1)OC21CCC2(C=CC3(C2)OC3C2CCCCC2)CC1 (stereo unspecified) the “activity, negative = inhibition” value was inactive: -12.6%.
With Cc1ccn2cc(-c3ccc(Br)cc3)nc2c1 the Potency was inconclusive: 15.8 µM [inhibitor, single point].
For COC(=O)c1ccc(C(NC(=O)OCc2ccccc2)/C(F)=C/[C@@H](C)C(=O)NCc2ccc(-c3ccccc3)cc2)cc1 (stereo partly specified), the Potency was inconclusive: 0.794 µM [inhibitor, full curve, poor fit].
With C/C(=N/NC(N)=S)c1ccccc1[N+](=O)[O-] the “activity, negative = inhibition” value was inactive: -10.1%.
In the case of CC1(C(=O)Nc2cccc(OC(F)(F)F)c2)Cc2c(-c3cccc(C(F)(F)F)c3)ccnc2O1 (stereo unspecified), the Potency is reported as inconclusive: 28.2 µM [inhibitor, single point].
With CCC1CN(C(=O)N2CCC(C(=O)NCc3ccc(C)o3)CC2)c2cc(C)ccc2O1 (stereo unspecified) the Potency was inconclusive: 14.1 µM [inhibitor, partial curve, poor fit].
For COc1cc2nc(CN(C)Cc3ccc(SC)cc3)[nH]c(=O)c2cc1OC, the “activity, negative = inhibition” value was inactive: -22.4%.
In the case of Cc1cccc(NC(=O)c2cnn(-c3ccccc3)c2-n2cccc2)c1C, the Potency is reported as inconclusive: 10 µM [inhibitor, partial curve].
In the case of Cc1ccc(N(C)S(=O)(=O)c2cccc(C(=O)OCC(=O)c3c(N)n(C)c(=O)n(C)c3=O)c2)cc1, the Potency is reported as inconclusive: 35.5 µM [inhibitor, single point].
With Cc1cc(C)c(Cn2c(C)c(CNCCCc3ccccc3)c(C(=O)O)c2C)c(C)c1 the “activity, negative = inhibition” value was inactive: 21.1%.
With Nc1cc(=O)[nH]c(SCC(=O)Nc2ccccc2Sc2ccc(Cl)cc2)n1 the Potency was inconclusive: 0.891 µM [inhibitor, partial curve, poor fit].
With CCCCON1C(=O)c2cccc3cccc(c23)C1=O the “activity, negative = inhibition” value was inactive: -3.18%.
For Cn1cc([N+](=O)[O-])c(C(=O)Nc2ccc(-c3nc4ccccc4o3)cc2)n1, the Potency was inconclusive: 15.8 µM [inhibitor, partial curve, poor fit].
With COc1ccc(-c2n[nH]c(=S)n2Cc2ccccc2)cc1 the “activity, negative = inhibition” value was inactive: -6.16%.
In the case of Cc1cc(F)cc(-c2cc(C(=O)NCc3ccccc3)[nH]n2)c1, the Potency is reported as inconclusive: 17.8 µM [inhibitor, single point].
In the case of Cc1ccc(-c2csc3ncnc(Sc4nnnn4-c4ccccc4)c23)cc1, the Potency is reported as active: 6.31 µM.
For CC(NC(=O)Cn1ncc2c3ccccc3n(Cc3ccc(F)cc3)c2c1=O)c1ccccc1 (stereo unspecified), the Potency was inconclusive: 5.01 µM [inhibitor, partial curve].
For CCOc1ccc(NC(=O)CCC(=O)N/N=C(\C)c2cccs2)cc1, the “activity, negative = inhibition” value was inactive: -4.39%.
In the case of O=C(CCCCCN1C(=O)[C@@H]2Cc3ccccc3CN2C1=O)Nc1cccc(F)c1, the Potency is reported as inconclusive: 20 µM [inhibitor, single point].
In the case of COc1cc(/C=C/c2ccc(O)cc2)cc(OC)c1, the “activity, negative = inhibition” value is reported as inactive: -10.1%.
In the case of CCOc1ccc(NS(=O)(=O)c2ccc(C(=O)N(C)CC(=O)Nc3ccc(C)cc3)cc2)cc1, the Potency is reported as inconclusive: 12.6 µM [inhibitor, partial curve].
For COCCn1c(SCC(=O)Nc2ccc(F)c(Cl)c2)nc2c(oc3ccccc32)c1=O, the Potency was inconclusive: 0.398 µM [inhibitor, full curve, poor fit].
In the case of CN(Cc1ccccc1)C(=O)COc1ccc2ccccc2c1, the “activity, negative = inhibition” value is reported as inactive: -10.4%.
With CC(=O)N1CCN(C(=O)COc2ccc3oc4c(c3c2)CCCC4)CC1 the “activity, negative = inhibition” value was inactive: -11.4%.
With O=C(CSc1nc2nn(-c3ccccc3)c(=O)c-2c2n1CCCCC2)c1ccc(O)c(O)c1 the Potency was inconclusive: 35.5 µM [inhibitor, partial curve, poor fit].
For CCOC(=O)c1c(NC(=O)c2ccoc2C)sc(C(=O)N(C)C)c1C, the “activity, negative = inhibition” value was inactive: -12.2%.
With Cc1ccccc1NC(=O)C(Cl)=C(Cl)Cl the Potency was inconclusive: 35.5 µM [inhibitor, single point].
With CCCn1c(=O)c2sccc2n2c(CCCC(=O)N3CCN(c4ccccc4)CC3)nnc12 the Potency was inconclusive: 17.8 µM [inhibitor, partial curve, poor fit].
For NCCCNc1nc(N)c([N+](=O)[O-])c(NC2CCCCC2)n1, the Potency was active: 5.01 µM.
For N/C(Cc1nc(-c2ccc(F)cc2)cs1)=N\O, the “activity, negative = inhibition” value was inactive: 9.41%.
For FC(F)(F)c1nc2ccccc2n2c(-c3ccc(Cl)cc3Cl)nnc12, the Potency was inconclusive: 20 µM [inhibitor, single point].
For CC(OC(=O)[C@@H](NS(=O)(=O)c1ccccc1)C(C)C)C(=O)c1c(N)n(C)c(=O)n(C)c1=O (stereo partly specified), the Potency was inconclusive: 35.5 µM [inhibitor, single point].
For CCc1nnc(NC(=O)Cc2cc(OC)c(OC)c(OC)c2)s1, the “activity, negative = inhibition” value was inactive: -1.14%.
In the case of CCOc1ccc(S(=O)(=O)Nc2ccc3oc(C)c(C(=O)OCCOC)c3c2)cc1, the Potency is reported as inconclusive: 14.1 µM [inhibitor, single point].
In the case of CCN1C(=O)CC(NCc2ccc3c(c2)OCO3)C1=O (stereo unspecified), the Potency is reported as inconclusive: 35.5 µM [inhibitor, single point].
In the case of CC(=O)c1cccc(NC(=O)CCS(=O)(=O)c2cc(Br)cc3c2N(C(=O)C2CC2)CC3)c1, the “activity, negative = inhibition” value is reported as inactive: 18.3%.
With C#CCOC(=O)Nc1cccn(Cc2c(Cl)cccc2Cl)c1=O the Potency was inconclusive: 35.5 µM [inhibitor, partial curve, poor fit].
For Cc1ccc(NC(=S)N(CCCN2CCOCC2)Cc2ccccn2)cc1, the Potency was inconclusive: 0.562 µM [inhibitor, partial curve, poor fit].
For CC(C)COP(=O)(c1ccc(N(C)C)cc1)C(Nc1ccccc1)c1ccccc1 (stereo unspecified), the “activity, negative = inhibition” value was inactive: -5.94%.
For COc1cc(OC)c(C2=NOC(C(=O)NCCc3ccccc3)C2)cc1Cl (stereo unspecified), the Potency was inconclusive: 17.8 µM [inhibitor, single point].
With CC(=O)c1cccc(-n2c(CCC(=O)O)ccc2-c2cccs2)c1 the Potency was inconclusive: 35.5 µM [inhibitor, single point].
With COCCNC(=O)C(c1ccco1)N(C(=O)Cn1nnc2ccccc21)c1cccc(C)c1C (stereo unspecified) the “activity, negative = inhibition” value was inactive: -13.2%.
With O=NN(CCCl)C(=O)NCCCl the “activity, negative = inhibition” value was inactive: 2.4%.
In the case of CC(C)(C)NC(=O)c1ccc(COc2ccc(Cl)cc2Cl)o1, the “activity, negative = inhibition” value is reported as inactive: 0.266%.
In the case of N=c1oc2ccccc2cc1-c1nc(-c2ccccc2)cs1, the “activity, negative = inhibition” value is reported as inactive: 16.3%.
With O=C(NCC(c1cccs1)N1CCOCC1)c1cn(-c2ccccc2)nc1-c1ccc(F)cc1 (stereo unspecified) the “activity, negative = inhibition” value was inactive: -9.3%.
